# The whole screen tested about 220,000 compounds, of which about 16,000 (7.3%) were called active. Inconclusive means that the source gave no clear call. Such entries were picked first, then a sample of the others. Calls follow the shape of the dose curve; as a rule, active = well fitted inhibition curve with a large enough effect (not every such curve was filed as active); inconclusive = small, poorly fitted or top-dose-only effect, or another doubt; inactive = no such curve, though single readings can be large or run the other way. No potency is given beside an inconclusive call; the fits are too rough.
# Biological target: Aldehyde dehydrogenase 1A1 (Homo sapiens) (UniProt P00352)
# Experiment: qHTS Assay for Inhibitors of Aldehyde Dehydrogenase 1 (ALDH1A1);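 as to activity, negative = inhibition: plate controls were no enzyme wells and a reference inhibitor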
# Conditions: Purified ALDH1A1, NADH fluorescence, propionaldehyde substrate; series mostly up to 75.3 µM; activity, negative = inhibition: at the top concentration
# Potency is read from the fitted curve at half-maximal effect; tags tell the direction and shape of the fitted curve.
# UniProt P00352, sequence (P00352 whole entry, looked up): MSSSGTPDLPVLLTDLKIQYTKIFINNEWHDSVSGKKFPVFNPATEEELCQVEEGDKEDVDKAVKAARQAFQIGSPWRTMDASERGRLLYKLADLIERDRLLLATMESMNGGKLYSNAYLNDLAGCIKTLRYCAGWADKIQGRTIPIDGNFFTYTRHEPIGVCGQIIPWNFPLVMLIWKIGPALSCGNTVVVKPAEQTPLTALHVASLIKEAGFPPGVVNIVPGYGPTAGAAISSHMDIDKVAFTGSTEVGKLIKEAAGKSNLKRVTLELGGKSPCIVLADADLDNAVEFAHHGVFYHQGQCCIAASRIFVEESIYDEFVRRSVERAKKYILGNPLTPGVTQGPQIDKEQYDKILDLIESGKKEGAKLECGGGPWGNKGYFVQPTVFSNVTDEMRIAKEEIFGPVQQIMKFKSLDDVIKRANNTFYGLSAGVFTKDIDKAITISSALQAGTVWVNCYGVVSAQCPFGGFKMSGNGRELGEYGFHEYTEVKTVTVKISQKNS
SMILES,Potency,"activity, negative = inhibition"
O=C1NC(=O)C(=Cc2csc3ccccc23)C(=O)N1,active: 10 µM,
COC1=CC(=O)OC(CCc2ccccc2)C1 (centres undefined),,inactive: -9.26%
CC(=O)NC1CC2CCCC(C1)N2C(=O)Nc1ccccc1 (centres undefined),,inactive: 22.9%
CCOc1cc(C=C2C(=O)NC(=O)NC2=O)ccc1OS(=O)(=O)c1ccccc1,"inconclusive [inhibitor, partial curve]",
CCCCn1c(NC(=O)c2ccco2)c(C(=O)OCC)c2nc3ccccc3nc21,"inconclusive [inhibitor, partial curve]",
O=c1[nH]c(=S)n(-c2ccc(Cl)cc2)c(O)c1/C=N/N1CCOCC1,,inactive: -15.1%
CN1C(=O)NC(=O)/C(=C\C=C\c2ccccc2[N+](=O)[O-])C1=O,"inconclusive [inhibitor, single point]",
COc1cc(/C=C/[N+](=O)[O-])ccc1O,"inconclusive [inhibitor, single point]",
C/C(CC(=O)N1CCN(C=O)CC1)=N\NC(=O)c1cccc([N+](=O)[O-])c1,active: 25.1 µM,
O=C(O)c1cc[c]([Hg][S]c2ncnc3nc[nH]c23)cc1,active: 0.891 µM,
C=CCN1C[C@H](C)N([C@H](c2ccc(C(=O)N(CC)CC)cc2)c2cccc(O)c2)C[C@H]1C,,inactive: 4.34%
CSc1nnc(OC(=O)N(C)C)n1-c1ccc(Cl)cc1,,inactive: 3.74%
COc1cccc(C(=O)C2CCCN(Cc3ccccn3)C2)c1 (centres undefined),,inactive: -6.11%
C=CCN1C[C@H](C)N([C@H](c2ccc(C(=O)N(CC)CC)cc2)c2cccc(OC)c2)C[C@H]1C,inactive,
O=C(Oc1ccc(Cl)c2cccnc12)N1CCCCCC1,"inconclusive [inhibitor, partial curve]",
COc1ccc2[nH]c(C)c(CCN3CCC(=O)C(C)C3C)c2c1 (centres undefined),"inconclusive [inhibitor, partial curve, poor fit]",
Cc1cccnc1NC1=NCC(C)S1 (centres undefined),,inactive: 7.09%
O=c1c2ccccc2nc(-c2ccoc2)n1-c1ccccc1Cl,active: 15.8 µM,
CCC(=O)OC1CCC2C3CCC4=CC(=O)CC[C@@]4(C)C3CC[C@]12C (some centres undefined),,inactive: -10.6%
CC(=O)Nc1ccccc1OC(=O)N(C)C,,inactive: -2.48%
CCN1CC2([N+](=O)[O-])CC=C(Cl)C([N+](=O)[O-])(C1)C2 (centres undefined),"inconclusive [inhibitor, partial curve, poor fit]",
O=C1NC(=O)C(=Cc2ccccc2Oc2ccc(F)cc2)C(=O)N1,"inconclusive [inhibitor, single point]",
CN1C(=O)C(=Cc2cc([N+](=O)[O-])ccc2N2CCCCC2)C(=O)N(C)C1=O,,inactive: 1.43%
COc1cc(/C=C2\C(=O)NC(=O)N(c3ccccc3)C2=O)cc(OC)c1OC,active: 12.6 µM,
CN1CCC(n2nccc2N)CC1,,inactive: 6.91%

SMILES,Potency,"activity, negative = inhibition"
COc1ccc(CN2C(=O)NC(=O)/C(=C\c3ccco3)C2=O)cc1,"inconclusive [inhibitor, partial curve]",
Cc1ccccc1N1C(=O)CC(=O)NC1=O,,inactive: -6.38%
CN(C(=O)CN1CC=C(c2ccccc2)CC1)c1c(N)n(Cc2ccccc2)c(=O)[nH]c1=O,,inactive: -0.438%
C#CCOCOCC#CCN(CC)CC,"inconclusive [inhibitor, single point]",
Cc1nn(C2CCOC(C)(C)C2)c2c1C(c1ccc(OC(C)C)cc1)SCC(=O)N2 (centres undefined),"inconclusive [inhibitor, single point]",
COc1ccc(-c2nnc3sc(C4CCCCC4)nn23)cc1OC,"inconclusive [inhibitor, single point]",
CCOc1ccc(OCC)c(NC(=O)CN2CCN(c3ccc(C)cc3C)CC2)c1,"inconclusive [inhibitor, single point]",
COc1ccc(O)c(CN2CCCC(C(=O)c3ccccc3SC)C2)c1 (centres undefined),"inconclusive [inhibitor, single point]",
CC(Oc1ccc(Cl)cc1Cl)C(=O)Nc1ccc(S(=O)(=O)Nc2cnc3ccccc3n2)cc1 (centres undefined),"inconclusive [inhibitor, single point]",
COc1ccc(-c2oc3cc(OC)ccc3c(=O)c2O)cc1,"inconclusive [inhibitor, partial curve]",
CCC(=O)CC(c1ccccc1)c1c(O)c2ccccc2sc1=O (centres undefined),"inconclusive [inhibitor, single point]",
COc1ccc2c(c1)CC1(CN2C)C(=O)NC(=O)N(CCc2ccccc2)C1=O (centres undefined),"inconclusive [inhibitor, single point]",
C1=CC2C3C=CC(C3)C2C1 (centres undefined),active: 22.4 µM,
O=C(c1cc(-c2cccnc2)nc2ccccc12)N1CCC2(CC1)OCCO2,"inconclusive [inhibitor, partial curve]",
CCC1CN2CCC1CC2C(Oc1cc2ccccc2c2ccccc12)c1ccnc2ccc(O)cc12 (centres undefined),,inactive: -2.98% [at 13.5 µM]
Nc1ccc2c(c1)Cc1ccccc1-2,"inconclusive [inhibitor, partial curve]",
COC(=O)/C(C)=C\CC12OC(C)(C)C3CC(C=C4C(=O)c5c(OC)c6c(c(CC=C(C)C)c5OC431)OC(C)(CCC=C(C)C)C=C6)C2=O (centres undefined),"inconclusive [inhibitor, single point]",
CN(CCc1ccccc1)Cc1ccccc1[N+](=O)[O-],"inconclusive [inhibitor, single point]",
c1cc(N2CCCC3(CCNCC3)C2)ccn1,"inconclusive [inhibitor, single point]",
CCc1cc2c(nc1CC)CCN(CC/C(C)=N/OC)C2,,inactive: -2.01% [at 13.5 µM]
CCCCCCN=C(CC)c1c(O)n(CCCC)c(=O)[nH]c1=O,,inactive: -12.5%
N#Cc1ccccc1Cn1cc(C(=O)c2ccccc2F)c2ccccc21,"inconclusive [inhibitor, partial curve]",
CN(C)CCO,,inactive: 0.872%
Cc1ccccc1-n1c(-c2ccoc2)nc2ccccc2c1=O,"inconclusive [inhibitor, single point]",
